Screen size: about 39,000 compounds; about 220 (0.56%) showed activity. The list shows a part of the results.
Tested on: Escherichia coli K-12 BW25113
Test: relative growth (OD600 normalised to plate interquartile mean) (fraction); higher = less growth inhibition, active = 0.2 or less
Details: 50 µM; LB; incubation time: overnight (16-24 h)
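Also: static incubation at 37 °C against the wild-type strain, values averaged over two biological replicates.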

Row | SMILES | relative growth
1 | Cc1ccc2nc([C@H](N)C(C)C)[nH]c2c1 | inactive: 1
2 | CC(C)NC(=O)Nc1ccc2c(c1)C(=O)N([C@H](C)CO)C[C@H](C)[C@@H](CN(C)CC1CCCCC1)OCCCC[C@@H](C)O2 | inactive: 0.975
3 | CCC(CC)c1nc(Nc2ccccc2)c2ccccc2n1 | inactive: 0.287
4 | Clc1ccc2c(c1)CCc1cccnc1C2=C1CCNCC1 | inactive: 0.969
5 | C[C@H]1CN([C@@H](C)CO)S(=O)(=O)c2ccc(-c3cncnc3)cc2O[C@@H]1CN(C)C(=O)c1cccc(F)c1 | inactive: 0.976
6 | CCn1c(-c2nonc2N)nc2cncc(C(=O)N3CC[C@H](N)C3)c21 | inactive: 1.03
7 | C[C@@H]1CN([C@@H](C)CO)C(=O)Cc2cc(NC(=O)Cn3cnnn3)ccc2O[C@H]1CN(C)CC1CC1 | inactive: 1.02
8 | C[C@@H]1CN([C@@H](C)CO)C(=O)c2cccc(NC(=O)Nc3ccc(F)cc3)c2O[C@@H]1CN(C)S(=O)(=O)c1cn(C)cn1 | inactive: 0.978
9 | C[C@H](CO)N1C[C@H](C)[C@H](CN(C)Cc2ccc(Cl)c(Cl)c2)Oc2c(NC(=O)Nc3ccc(C(F)(F)F)cc3)cccc2C1=O | inactive: 0.997
10 | C[C@@H]1CCCCO[C@H](CN(C)C(=O)c2ccccc2)[C@H](C)CN([C@@H](C)CO)C(=O)c2cc(NC(=O)Nc3ccc(C(F)(F)F)cc3)ccc2O1 | inactive: 0.964
11 | O=C(Nc1ccc(S(=O)(=O)OCC(F)(F)C(F)(F)C(F)(F)C(F)F)cc1)NC1(C(F)(F)F)Oc2ccccc2O1 | inactive: 1.03
12 | C[C@@H]1CN([C@@H](C)CO)C(=O)c2cc(C#CC3CCCCC3)cnc2O[C@H]1CN(C)C(=O)Cc1ccccn1 | inactive: 0.979
13 | COc1ccc(CN(C)C[C@@H]2OCCCC[C@H](C)Oc3ccc(NC(=O)C4CCCCC4)cc3C(=O)N([C@H](C)CO)C[C@H]2C)cc1 | inactive: 0.937
14 | NCc1cc(Oc2cccc(C(=O)N3C[C@@H](O)[C@H](F)C3)c2)nc(C(F)(F)F)c1 | inactive: 0.98
15 | C[C@@H]1CCCCO[C@@H](CN(C)CC2CCCCC2)[C@@H](C)CN([C@@H](C)CO)C(=O)c2cc(NC(=O)Nc3ccc4c(c3)OCO4)ccc2O1 | inactive: 0.991
16 | COc1ccc2c3c(n(c2c1)C)[C@@H](CO)N(C[C@]13CCN(CC1)C(=O)c1cccnc1)C(=O)c1cccnc1 | inactive: 0.996
17 | COc1ccc(NC(=O)Nc2ccc3c(c2)C(=O)N([C@@H](C)CO)C[C@@H](C)[C@H](CN(C)C(=O)Nc2ccccc2)OCCCC[C@@H](C)O3)cc1 | inactive: 1.05
18 | Cc1ccc(S(=O)(=O)N(C)C[C@@H]2Oc3c(NC(=O)C4CC4)cccc3C(=O)N([C@H](C)CO)C[C@@H]2C)cc1 | inactive: 1.01
19 | C[C@@H]1CCCCO[C@@H](CN(C)C(=O)NC2CCCCC2)[C@@H](C)CN([C@@H](C)CO)C(=O)c2cc(NC(=O)NC3CCCCC3)ccc2O1 | inactive: 1.01
20 | C[C@H](CO)N1C[C@H](C)[C@H](CN(C)CC2CCCCC2)Oc2c(NS(=O)(=O)c3cn(C)cn3)cccc2C1=O | inactive: 1.01
21 | O=C(CCC(=O)N1CCOCC1)Nc1c(F)c(F)nc(N2CCOCC2)c1F | inactive: 0.958

Row | SMILES | relative growth
22 | Cc1noc(C)c1S(=O)(=O)N(C)C[C@@H]1OCCCC[C@@H](C)Oc2ccc(NS(C)(=O)=O)cc2C(=O)N([C@H](C)CO)C[C@H]1C | inactive: 1.05
23 | O=C(C[C@H]1CC[C@@H]2[C@H](COC[C@@H](O)CN2S(=O)(=O)c2ccccc2F)O1)NCc1ccccc1F | inactive: 0.996
24 | C[C@H]1CN([C@@H](C)CO)C(=O)Cc2cc(NC(=O)CCC(F)(F)F)ccc2O[C@@H]1CN(C)S(=O)(=O)c1cn(C)cn1 | inactive: 0.997
25 | Cc1noc(C)c1NC(=O)Nc1ccc2c(c1)CC(=O)N([C@@H](C)CO)C[C@H](C)[C@@H](CN(C)S(=O)(=O)c1ccccc1)O2 | inactive: 0.972
26 | COc1cccc(NC(=O)N2C[C@@H](O)COC[C@@H]3O[C@H](CC(=O)NCc4ccccc4F)CC[C@H]32)c1 | inactive: 0.994
27 | C[C@H](CO)N1C[C@H](C)[C@H](CN(C)S(=O)(=O)c2ccccc2)Oc2ncc(C#Cc3cccc(F)c3)cc2C1=O | inactive: 0.988
28 | CO[C@H]1O[C@H](COC(=O)NCCCCCC(=O)NO)[C@@H](OC(=O)Nc2ccccc2)[C@@H]2OC(=O)[C@H](Cc3cccc(Br)c3)C/C=C/C[C@@H](Cc3cccc(Br)c3)C(=O)O[C@@H]12 | inactive: 1.01
29 | Cc1noc(C)c1NC(=O)Nc1ccc2c(c1)CC(=O)N([C@H](C)CO)C[C@@H](C)[C@H](CN(C)S(=O)(=O)c1cn(C)cn1)O2 | inactive: 0.951
30 | Cc1noc(C)c1S(=O)(=O)Nc1ccc2c(c1)C(=O)N([C@@H](C)CO)C[C@@H](C)[C@H](CN(C)Cc1ccc(C(=O)O)cc1)O2 | inactive: 0.988
31 | CN(C)CCOC(c1ccccc1)c1ccccc1.Cn1c(=O)c2[nH]c(Cl)nc2n(C)c1=O | active: 0.0491
32 | CC=Cc1ccc2n(c1=O)C[C@@H]1[C@@H](CO)[C@H](C(=O)NC3CCC3)[C@H]2N1S(=O)(=O)c1cn(C)cn1 | inactive: 1.01
33 | CC(=Cc1ccccc1)C=C1SC(=S)N(CC(=O)O)C1=O | inactive: 1.06
34 | C[C@H](CO)N1C[C@H](C)[C@@H](CN(C)Cc2ccc(F)cc2)Oc2cc(Br)ccc2S1(=O)=O | inactive: 0.938
35 | Nc1cc(N)nc(SCCC(=O)O)n1 | inactive: 1.02
36 | O=C(O)C(O)C(O)(Cc1ccc(O)cc1)C(=O)O (stereo not drawn) | inactive: 1.07
37 | NC(=O)NCc1ccccn1 | inactive: 1
38 | C[C@@H]1CN([C@H](C)CO)C(=O)c2cccc(NS(=O)(=O)c3cn(C)cn3)c2O[C@H]1CN(C)Cc1ccncc1 | inactive: 0.97
39 | C[C@@H]1CCCCO[C@@H](CN(C)S(=O)(=O)c2ccc(F)cc2)[C@@H](C)CN([C@H](C)CO)C(=O)c2cc(NS(C)(=O)=O)ccc2O1 | inactive: 1.02
40 | C[C@H](CO)N1C[C@H](C)[C@@H](CN(C)Cc2ccc(C(F)(F)F)cc2)Oc2ccc(NC(=O)Cc3ccccc3)cc2CC1=O | inactive: 1.05
41 | CC(C)NC(=O)N(C)C[C@H]1Oc2ccc(NS(=O)(=O)c3cccs3)cc2CC(=O)N([C@@H](C)CO)C[C@@H]1C | inactive: 0.992
42 | COc1cccc(-c2ccc3c(c2)O[C@H](CN(C)C(=O)C2CCC2)[C@H](C)CN([C@H](C)CO)S3(=O)=O)c1 | inactive: 1.03

Row | SMILES | relative growth
43 | COc1ccc(NC(=O)N(C)C[C@H]2OCc3cnnn3CCCC(=O)N([C@@H](C)CO)C[C@H]2C)c(OC)c1 | inactive: 1.02
44 | Cc1ccc(S(=O)(=O)Nc2ccc3c(c2)C(=O)N([C@@H](C)CO)C[C@H](C)[C@H](CN(C)Cc2ccc(C(F)(F)F)cc2)OCCCC[C@@H](C)O3)cc1 | inactive: 1.02
45 | CC(C)CN1C[C@H](C(=O)O)CC1=O | inactive: 0.988
46 | COc1ccc(CN(C)C[C@H]2Oc3ccc(NS(C)(=O)=O)cc3CC(=O)N([C@H](C)CO)C[C@@H]2C)cc1 | inactive: 0.96
47 | O=C(C[C@@H]1CC[C@@H]2[C@H](COC[C@H](O)CN2C(=O)Nc2ccc(Cl)cc2)O1)NCCc1ccncc1 | inactive: 0.946
48 | C[C@H](CO)N1C[C@H](C)[C@H](CN(C)S(=O)(=O)c2cn(C)cn2)Oc2ncc(-c3ccc(F)cc3)cc2C1=O | inactive: 1.02
49 | O=C1NCCC[C@@H]1C(=O)N1CCCCC1 | inactive: 0.98
50 | CC(C)NC(=O)Nc1cccc2c1O[C@H](CN(C)Cc1ccc(C(=O)O)cc1)[C@H](C)CN([C@@H](C)CO)C2=O | inactive: 0.996
51 | Cc1ccc(S(=O)(=O)N(C)C[C@@H]2Oc3ccc(NC(=O)C4CC4)cc3C(=O)N([C@@H](C)CO)C[C@@H]2C)cc1 | inactive: 1
52 | NNC(=O)CNc1ccc2c(c1)OCO2 | inactive: 1.03
53 | CC(C)CC[C@@H](O)[C@H]1C[C@@H](CO)OC1=O | inactive: 0.995
54 | CCCCc1cn(C[C@@H]2CCCN2C(=O)N[C@H](CO)CCc2oc(C(C)=O)c(C(=O)OC)c2C(=O)OC)nn1 | inactive: 1
55 | C[C@H]1CCCCO[C@@H](CN(C)C(=O)Nc2cccc3ccccc23)[C@@H](C)CN([C@@H](C)CO)C(=O)c2cc(NS(=O)(=O)c3ccc(Cl)cc3)ccc2O1 | inactive: 1.02
56 | C[C@@H]1CCCCO[C@@H](CN(C)C(=O)C2CCCCC2)[C@H](C)CN([C@@H](C)CO)C(=O)c2cc(NC(=O)Nc3ccc(F)cc3)ccc2O1 | inactive: 1.01
57 | C[C@@H]1CCCCO[C@@H](CN(C)C(=O)C2CCCCC2)[C@@H](C)CN([C@@H](C)CO)C(=O)c2cc(NC(=O)c3ccccc3)ccc2O1 | inactive: 1.03
58 | O=S(=O)(Cc1ccccc1)Nc1ccc(-c2ccc3c(cnn3-c3ccc(F)cc3)c2)c(C(F)(F)F)c1 | inactive: 0.921
59 | C[C@H](CO)N1C[C@H](C)[C@H](CN(C)S(C)(=O)=O)Oc2ccc(NC(=O)CCN3CCOCC3)cc2C1=O | inactive: 1.01
60 | COc1ccc(NC(=O)N(C)C[C@@H]2Oc3ccc(NC(=O)C4CC4)cc3CC(=O)N([C@@H](C)CO)C[C@@H]2C)cc1 | inactive: 0.998
61 | C[C@H]1CN([C@@H](C)CO)C(=O)c2c(c3ccccc3n2C)-c2ccccc2CO[C@H]1CN(C)S(=O)(=O)c1ccc(Cl)cc1 | inactive: 1.01
62 | COc1cc(N2C[C@@H]3C[C@H](C(=O)NCCN(C)C)N(C)[C@@H]3C2)ncn1 | inactive: 0.997
63 | COc1ccc(NC(=O)N(C)C[C@@H]2OCCCC[C@@H](C)Oc3ccc(NC(=O)c4ccccc4)cc3C(=O)N([C@H](C)CO)C[C@H]2C)cc1 | inactive: 0.893

Source: the supplement of paper PMC9446081
